Reference: PubChem BioAssay AID2675 (National Center for Advancing Translational Sciences (NCATS), 2010)
The whole screen tested about 280,000 compounds, of which about 100 (0.036%) were called active. The inconclusive results got no clear call from the source; some entries with a clear call stand among them for comparison. Calls come from the whole dose curve; as a rule, active = well fitted inhibition curve with a large enough effect in the signal ratio, with a control signal flat (not every such curve was filed as active); inconclusive = small, poorly fitted or top-dose-only effect, or effect the other way, or a change in a side signal; inactive = no such curve, though single readings can be large or run the other way; the % refers to the signal ratio. A potency beside an inconclusive call is a rough fit, not a confirmed value. “Side channel” marks fits to a control or component signal instead of the main read-out.

target: Muscleblind-like protein 1 (Homo sapiens) (UniProt Q9NR56); assay: qHTS Assay for Inhibitors of MBNL1-poly(CUG) RNA binding; conditions: TR-FRET MBNL1-His/biotin-(CUG)12 binding, 665/545 ratio; series mostly up to 57.5 µM
How it was run: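 Ratiometric TR-FRET (665 over 545 nm, excitation 340 nm) tracks disruption of MBNL1-His/biotin-(CUG)12 complex after 60 min at room temperature, with compounds at 92 nM to 58 uM final.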
Potency is the fitted concentration of half-maximal effect; tags give direction and shape of the fitted curve or compound fluorescence and quenching.

UniProt Q9NR56, sequence (Q9NR56 whole entry, looked up): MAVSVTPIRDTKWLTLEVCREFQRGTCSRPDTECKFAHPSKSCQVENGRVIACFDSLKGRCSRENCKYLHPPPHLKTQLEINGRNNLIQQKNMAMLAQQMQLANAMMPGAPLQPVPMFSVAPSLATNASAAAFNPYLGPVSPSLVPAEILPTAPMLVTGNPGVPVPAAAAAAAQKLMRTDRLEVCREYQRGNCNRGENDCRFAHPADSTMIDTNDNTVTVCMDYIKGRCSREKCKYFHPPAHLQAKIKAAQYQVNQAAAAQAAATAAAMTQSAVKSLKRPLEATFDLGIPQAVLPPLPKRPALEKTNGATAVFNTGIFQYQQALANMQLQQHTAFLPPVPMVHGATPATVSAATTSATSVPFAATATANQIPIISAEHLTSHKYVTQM

Compound	Potency
CC1(C)CC(=O)C2=C(C1)N(c1cccc(O)c1)C1=C(C2)C(=O)CC(C)(C)C1	inconclusive: 28.2 µM [quencher, side channel, single point]
O=[N+]([O-])c1cc(F)c2cccnc2c1O	inconclusive: 25.1 µM [quencher, side channel, partial curve]
CCN(CC)CCN(C(=O)c1ccc2c(c1)OCCO2)c1nc2c(Cl)cccc2s1	inactive
O=C(N/N=C\c1cc(Br)c(Br)o1)c1cncc(Br)c1	inactive
O=c1cc2[nH]c3ccccc3c(=O)n2nc1-c1ccccc1	inconclusive: 15.8 µM [quencher, side channel, partial curve]
CN(CC(=O)Nc1ccc(Cl)cc1)C(=O)c1cccc(S(=O)(=O)NCc2ccccc2)c1	inactive
N#Cc1ccc(CSc2nnc(NC(=O)c3ccc4ncsc4c3)s2)cc1	inconclusive: 11.2 µM [fluorescent, side channel, partial curve]
O=C(c1cncc(Br)c1)N1CCc2ccccc2C1	inactive
CCOc1cc(C2NC(=O)N(C)C(C)=C2[N+](=O)[O-])ccc1OC(C)=O (centres undefined)	inconclusive: 10 µM [quencher, side channel, partial curve]
CN(Cc1ccccc1)C(=O)CN1C(=O)c2ccccc2C1=O	inconclusive: 14.1 µM [quencher, side channel, partial curve]
COc1cccc(OC)c1C(=O)Nc1ccc2nc(C)c(C)nc2c1	inconclusive: 20 µM [quencher, side channel, partial curve]
CCN(CC)S(=O)(=O)c1ccc(N=NC2=C(O)CCCC2=O)cc1	inconclusive: 1.78 µM [quencher, side channel, full curve]
O=C(/C=C/c1ccco1)NC(=S)Nc1ccccn1	inactive
CN(C(=O)COC(=O)c1cccc(F)c1)c1ccccc1	inactive
O=c1oc2ccccc2cc1-c1csc(Cc2nc(-c3ccc(Br)cc3)cs2)n1	inconclusive: 3.98 µM [quencher, side channel, single point]
Cc1ccc(/C=N/NC(=O)c2cccs2)cc1[N+](=O)[O-]	inconclusive: 6.31 µM [quencher, side channel, partial curve]
O=C(Nc1sccc1C(=O)N1CCOCC1)c1cccnc1	inconclusive: 6.31 µM [quencher, side channel, single point]
C/C=C\C=C\C(=O)N1CC2(CC(c3cccc(NC(=O)CC)c3)=NO2)C[C@H]1C(N)=O (some centres undefined)	inactive
Cc1oc2c(O)c(O)ccc2c(=O)c1-c1cnn(-c2ccccc2)c1	inactive
